Test results reported in PubChem BioAssay AID1030 (National Center for Advancing Translational Sciences (NCATS), 2008).
About 16,000 (7.3%) of roughly 220,000 compounds were called active. The inconclusive results got no clear call from the source; some entries with a clear call stand among them for comparison. Calls come from the whole dose curve; as a rule, active = well fitted inhibition curve with a large enough effect (not every such curve was filed as active); inconclusive = small, poorly fitted or top-dose-only effect, or another doubt; inactive = no such curve, though single readings can be large or run the other way. Potencies beside an inconclusive call are fits to weak or partial responses and may not hold up.

molecular target: Aldehyde dehydrogenase 1A1 (Homo sapiens) (UniProt P00352); assay: qHTS Assay for Inhibitors of Aldehyde Dehydrogenase 1 (ALDH1A1); details: Purified ALDH1A1, NADH fluorescence, propionaldehyde substrate; series mostly up to 75.3 µM
Potency is the fitted concentration of half-maximal effect; tags give direction and shape of the fitted curve.

Sequence of UniProt P00352 (P00352 whole entry, looked up): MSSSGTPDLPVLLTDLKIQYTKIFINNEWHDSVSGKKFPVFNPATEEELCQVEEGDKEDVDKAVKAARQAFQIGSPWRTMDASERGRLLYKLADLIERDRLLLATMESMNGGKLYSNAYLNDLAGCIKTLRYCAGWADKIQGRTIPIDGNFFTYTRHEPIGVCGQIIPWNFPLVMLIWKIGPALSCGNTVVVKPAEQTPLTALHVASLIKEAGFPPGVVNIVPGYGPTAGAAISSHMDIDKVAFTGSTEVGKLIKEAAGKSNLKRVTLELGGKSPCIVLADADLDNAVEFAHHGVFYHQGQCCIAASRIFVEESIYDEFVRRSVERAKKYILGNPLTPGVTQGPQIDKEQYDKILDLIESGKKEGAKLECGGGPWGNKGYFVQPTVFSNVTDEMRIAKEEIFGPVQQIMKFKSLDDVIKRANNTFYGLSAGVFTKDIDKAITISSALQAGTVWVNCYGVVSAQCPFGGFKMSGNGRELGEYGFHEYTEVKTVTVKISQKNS

Potency, inactive:
Cc1ccc2[nH]c(C)c(/C=N/Nc3nc4ccccc4s3)c2c1
O=C(COc1ccccc1-c1ccccc1)N/N=C/c1ccccn1
COc1ccccc1Nc1ncccc1C(=O)O
COCC(=O)N1CCN(c2ccc([N+](=O)[O-])cc2)CC1
Cc1cc(C)nc(SCC(=O)Oc2ccc3oc(=O)cc(C)c3c2)n1
NC(=O)CSc1nnc(C2CC2)n1-c1ccccc1
COc1ccc(OCC(=O)Nc2cc(-c3nn4c(C)nnc4s3)ccc2C)cc1
CCOC(=O)c1ccc(NC(=O)NC(C)C2CCCO2)cc1 (stereo unspecified)
COc1ccc(-n2c(SCC(=O)Nc3cccc(S(N)(=O)=O)c3)nc3ccccc3c2=O)cc1OC
COC(=O)c1ccc(Oc2coc3cc(OCc4ccc([N+](=O)[O-])cc4)ccc3c2=O)cc1
O=C(O)/C=C\C(=O)Nc1ccccc1C(=O)N1CCN(c2ccc(Cl)cc2)CC1
O=C(C=C1SCCS1)/C=C/c1ccco1
COc1cccc(NC(=O)Cn2c(CCC(=O)O)ccc2-c2ccccc2)c1
COC(=O)N1CCC[C@@]2(CCN(Cc3cc(C(F)(F)F)cc(C(F)(F)F)c3)C2)C1
CC(=O)N1CCC[C@H]1C(=O)O
Oc1ccc(Cl)cc1C1=NCCNC(C(F)(F)C(F)F)=C1
CN(Cc1ccccc1)C(=O)[C@H](Cc1ccc2ccccc2c1)NC(=O)[C@@H]1CCCN1C(=O)Nc1ccccc1[N+](=O)[O-]
CN(C)C(=O)c1ccc2c(c1[N+](=O)[O-])C(=O)c1ccccc1C2=O
O=C(c1cc2ccccc2o1)N1CCN=C1SCc1cccnc1
CNC(=O)N(C1=NCC(C)(C)S1)c1ccc(F)c(Cl)c1

Potency, active:
Cc1[nH]n(C)c(=O)c1C(=O)c1c(-c2c(Cl)cccc2Cl)noc1C 8.91 µM
Clc1ccccc1-c1nccc(NCc2cccs2)n1 14.1 µM
Cc1sc(NC(=O)/C=C/C(=O)O)c(C(N)=O)c1-c1ccc(C(C)(C)C)cc1 12.6 µM
COc1ccc(C(=O)n2nc(C)c(Br)c2C)cc1 10 µM
CCN(CC)S(=O)(=O)c1ccc(N2CCCC2)c(NS(=O)(=O)c2ccc([N+](=O)[O-])cc2)c1 2 µM
Cc1cnc(C(=O)Nc2ccc(F)cc2)cn1 31.6 µM
CC1=C2[C@H](/C=C(\C)C(=O)O)CC[C@@H](C)[C@H]2CC1 17.8 µM
COc1ccc(-c2csc(NC(=O)CSc3nnc(Nc4ccccc4C)s3)n2)cc1 25.1 µM
Cc1sc(NC(=O)C2CCCO2)c(C#N)c1C (stereo unspecified) 25.1 µM
COCc1cc(C)nc(SCC(=O)N2CCC(C)CC2)c1C#N 7.94 µM
CC(C)(c1ccccc1)c1ccc(OCCCN2CCNCC2)cc1 15.8 µM

Potency, inconclusive:
CC(C)(C)C(=O)OCOP(=O)(OCOC(=O)C(C)(C)C)C(C)(Oc1ccc(O)cc1)P(=O)(OCOC(=O)C(C)(C)C)OCOC(=O)C(C)(C)C 31.6 µM [inhibitor, single point]
COc1cc(OC)cc(C(=O)N[C@H](C(=O)OCC(=O)Nc2ccc(C)cc2C)C(C)C)c1 39.8 µM [inhibitor, single point]
CCOCCCn1c(SCC(=O)NCc2ccco2)nc2c(sc3ccccc32)c1=O 12.6 µM [inhibitor, partial curve]
CC(=O)OC[C@H]1O[C@@H](Sc2cccc3cccnc23)[C@H](OC(C)=O)[C@@H](OC(C)=O)[C@@H]1OC(C)=O 28.2 µM [inhibitor, partial curve]
COc1ccc(N=C2C(=Nc3ccc(OC)cc3)N(c3ccccc3)C(=S)N2C(=O)c2ccc(Cl)cc2)cc1 39.8 µM [inhibitor, single point]
COc1cccc(C(=O)N/N=C/c2ccc(Oc3ccc([N+](=O)[O-])cn3)c(OC)c2)c1 35.5 µM [inhibitor, single point]
COc1ccc(S(=O)(=O)Nc2cc(C(=O)NCCCN3CCOCC3)ccc2N2CCOCC2)cc1 39.8 µM [inhibitor, single point]
Cc1ccccc1Cc1c(C)nc2nc(SCC(=O)NCc3ccco3)nn2c1C 37.7 µM [inhibitor, single point]
CN(Cc1nc2ccc(Cl)cc2[nH]1)Cc1nc(-c2cnccn2)no1 0.794 µM [inhibitor, full curve]
NS(=O)(=O)c1cccc(NC(=O)c2cc(-c3cccs3)nc3ccccc23)c1 35.5 µM [inhibitor, single point]
NC(=O)CSc1nnc(-c2cc3ccccc3o2)n1Cc1ccccc1 25.1 µM [inhibitor, partial curve]
CCOC(=O)C1=C(CC)Nc2ccccc2N=C1NC(=O)c1cc(S(=O)(=O)N(C)C)ccc1Cl 25.1 µM [inhibitor, partial curve]
Cc1nc(C)c(C(=O)C2=C(O)C(=O)N(CCN(C)C)C2c2cccs2)s1 (stereo unspecified) 39.8 µM [inhibitor, single point]
C=CCn1c(SCC(=O)N2CCCC2)nc2scc(-c3cccs3)c2c1=O 8.91 µM [inhibitor, full curve]
COC(=O)C1C2CCC(C2)C1C(=O)OCC(=O)c1ccccc1 (stereo unspecified) 14.1 µM [inhibitor, partial curve]
O=C1NC(c2ccccc2)C(C(=O)c2cccs2)C(O)(C(F)(F)F)N1 (stereo unspecified) 39.8 µM [inhibitor, single point]
NC(=S)N/N=C\c1ccccc1OCc1ccccc1 8.91 µM [inhibitor, partial curve]
Cc1ccc(-c2ccc(/C=C(\C#N)C(N)=S)o2)c([N+](=O)[O-])c1 44.7 µM [inhibitor, single point]
CC(C)CN1C(=S)SC(C)(C)C1n1oc(=O)n(-c2ccc(Cl)cc2)c1=O (stereo unspecified) 17.8 µM [inhibitor, partial curve, poor fit]
Cc1cc(=O)c2c(C)nn(-c3ccccc3)c2[nH]1 39.8 µM [inhibitor, single point]
O=C(COC(=O)CCc1ccc(S(=O)(=O)N2CCOCC2)cc1)Nc1ccc(Cl)cn1 11.2 µM [inhibitor, partial curve]
COc1ccc(OCC(=O)N/N=C/c2ccc(N(C)C)cc2)cc1 22.4 µM [inhibitor, partial curve]
O=C(NCc1cccc(C(F)(F)F)c1)C1CC(c2ccccc2[N+](=O)[O-])=NO1 (stereo unspecified) 25.1 µM [inhibitor, single point]
COc1ccc(-n2cc(C(=O)c3cc4ccccc4oc3=O)c(C(C)=O)n2)cc1 10 µM [inhibitor, partial curve]
CCCC(=O)NC(=S)Nc1cccc(Cl)c1N1CCCC1 35.5 µM [inhibitor, single point]
CC1CCCN(c2ccc(C(=O)Nc3ccc4c(c3)OCO4)cc2[N+](=O)[O-])C1 (stereo unspecified) 28.2 µM [inhibitor, partial curve]
COc1ccc(S(=O)(=O)n2[nH]c(=O)c(CCO)c2C)c([N+](=O)[O-])c1 10 µM [inhibitor, partial curve]
Cc1c(C(=O)OCc2nc3scc(-c4ccccc4)c3c(=O)[nH]2)cccc1[N+](=O)[O-] 8.91 µM [inhibitor, partial curve]
Cc1cc(C(=O)COC(=O)CCCN2C(=O)c3ccccc3C2=O)c(C)n1C 39.8 µM [inhibitor, single point]
Cc1cc(C(F)F)n2nc(C(=O)Nc3cccnc3Cl)nc2n1 39.8 µM [inhibitor, single point]
CN(C(=O)CC(=O)Nc1ccc(Cl)c(Cl)c1)c1ccccc1 39.8 µM [inhibitor, single point]
CCNC(=O)COC(=O)c1cc(-c2ccc(OC)cc2)nc2ccccc12 37.7 µM [inhibitor, single point]
Cc1ccc(/C=C2/NC(=O)N(Cc3ccccc3F)C2=O)s1 0.501 µM [inhibitor, full curve]
COc1cc(C(C[N+](=O)[O-])c2c(C)[nH]c3ccccc23)ccc1O (stereo unspecified) 39.8 µM [inhibitor, single point]
Cc1cccc(CSCCNC(=O)CSCc2ccc([N+](=O)[O-])cc2)c1 39.8 µM [inhibitor, single point]
OCC1CCCN(C(=S)Nc2ccc(Nc3ccccc3)cc2)C1 (stereo unspecified) 39.8 µM [inhibitor, single point]
c1ccc2c(c1)nnn1c3ccccc3nc21 39.8 µM [inhibitor, single point]
Cn1c(/C=N/n2cnnc2)nc2ccccc21 35.5 µM [inhibitor, partial curve]
COc1ccc(S(=O)(=O)N(C)CC(=O)Nc2c(F)cccc2F)cc1 25.1 µM [inhibitor, single point]
COc1ccc(-c2nc(S(=O)(=O)c3ccc(C)cc3)c(N3CCCC3)o2)cc1 39.8 µM [inhibitor, single point]
